Measured values reported in PMC4336329 (PLoS ONE, 2015).
Hit rate of the full screen: of about 310,000 compounds, about 2,200 (0.71%) showed an effect of 50% or more. The effect is printed as a negative number. The list shows a part of the results.

These compounds were tested against human ether-à-go-go-related gene (hERG) potassium channel (human, UniProt Q12809) (assay: primary screen, population patch clamp on CHO cells stably expressing hERG).
Chain of human ether-à-go-go-related gene (hERG) potassium channel (Q12809 whole entry, looked up): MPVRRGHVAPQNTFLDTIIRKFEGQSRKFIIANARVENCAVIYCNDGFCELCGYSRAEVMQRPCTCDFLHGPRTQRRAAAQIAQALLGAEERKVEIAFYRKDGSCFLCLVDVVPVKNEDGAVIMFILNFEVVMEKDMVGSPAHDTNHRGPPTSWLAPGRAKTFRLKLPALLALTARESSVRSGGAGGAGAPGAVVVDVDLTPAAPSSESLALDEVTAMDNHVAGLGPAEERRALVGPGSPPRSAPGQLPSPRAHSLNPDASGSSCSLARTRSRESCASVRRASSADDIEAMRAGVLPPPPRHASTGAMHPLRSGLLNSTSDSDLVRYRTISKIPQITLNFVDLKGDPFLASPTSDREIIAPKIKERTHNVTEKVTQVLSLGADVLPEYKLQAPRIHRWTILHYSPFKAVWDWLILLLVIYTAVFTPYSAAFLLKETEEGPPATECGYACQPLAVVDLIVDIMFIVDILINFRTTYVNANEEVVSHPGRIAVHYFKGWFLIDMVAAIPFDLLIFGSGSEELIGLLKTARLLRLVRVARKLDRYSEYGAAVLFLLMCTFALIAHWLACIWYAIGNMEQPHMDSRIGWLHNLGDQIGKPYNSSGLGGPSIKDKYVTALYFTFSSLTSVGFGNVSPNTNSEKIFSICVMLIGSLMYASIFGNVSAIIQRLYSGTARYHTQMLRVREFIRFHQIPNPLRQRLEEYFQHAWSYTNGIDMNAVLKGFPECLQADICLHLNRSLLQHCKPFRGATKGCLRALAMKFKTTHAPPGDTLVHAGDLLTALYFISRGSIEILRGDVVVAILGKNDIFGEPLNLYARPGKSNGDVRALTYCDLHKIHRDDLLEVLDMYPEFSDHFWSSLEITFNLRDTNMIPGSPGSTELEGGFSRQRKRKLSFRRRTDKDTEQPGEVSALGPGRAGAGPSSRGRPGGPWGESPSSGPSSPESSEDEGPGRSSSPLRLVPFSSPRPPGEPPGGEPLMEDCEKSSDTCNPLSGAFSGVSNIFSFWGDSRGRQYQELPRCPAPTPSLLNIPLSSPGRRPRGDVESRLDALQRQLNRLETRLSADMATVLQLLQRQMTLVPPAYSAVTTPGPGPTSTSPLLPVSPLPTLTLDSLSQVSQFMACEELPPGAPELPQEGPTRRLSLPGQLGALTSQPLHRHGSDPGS

| SMILES | hERG current change (%, negative = inhibition) at 1uM [%] |
| --- | --- |
| CCOC(=O)c1[nH]c2ccc(F)cc2c1NC(=O)C(C)N1CCc2cc(OC)c(OC)cc2C1 (stereo not shown) | 10.3 |
| COc1ccc(C(C)=O)cc1COc1ccc(-n2cnnn2)cc1 | 0.467 |
| Cc1ccc(S(=O)(=O)NC(=NC2CCCCC2)c2ccc(Cl)cc2)cc1 | 15 |
| CCn1c(Cc2ccc(OC)cc2)nc2ccccc21 | 8.49 |
| COCCN(C(=O)c1ccc2ccccc2c1)c1c(N)n(Cc2ccccc2)c(=O)[nH]c1=O | 1.9 |
| CN(CC(=O)NC1CCCCC1)S(=O)(=O)c1cccc2nsnc12 | 11 |
| CCCCOc1ncnc2c1[nH]c1ccc(C)cc12 | 2.78 |
| O=C(c1ccco1)N1CCN(c2cc(N3CCOCC3)c(F)cc2[N+](=O)[O-])CC1 | -12.4 |
| O=C(c1cccnc1)N1CCN(c2ccccc2Cl)CC1 | 7.73 |
| CC(C)(C)CNc1cc(N2CCOCC2)ccc1[N+](=O)[O-] | 9.13 |
| COc1ccc(Nc2nc(N)c([N+](=O)[O-])c(NCCO)n2)cc1 | 15.2 |
| Cc1cc(=O)oc2c3c(cc(OCC(=O)NCc4ccccn4)c12)OC(C)(C)CC3 | 3.22 |
| CC(C)C(NC(=O)c1cccs1)C(=O)NC1=NCCS1 (stereo not shown) | 3.38 |
| COc1ccc(-c2[nH]ncc2CN2CCCC2c2nonc2C)c(F)c1 (stereo not shown) | 8.27 |
| CC1(C)CC(=O)C2=C(C1)N(Cc1ccccc1)C(=O)C2(NC(=O)C(C)(C)C)C(F)(F)F (stereo not shown) | -9.33 |
| COc1cc(OC)cc(C(=O)N2CC(=O)Nc3ccccc32)c1 | 14 |
| CC(=O)c1ccc(N2CCN(C(=O)COc3ccc(F)cc3)CC2)c(F)c1 | -62.7 |
| Cc1ccc2cccc(O)c2[n+]1[O-] | 6.61 |
| Cc1csc(=O)n1CCC(=O)OCC(=O)NNC(=O)c1ccccc1 | 2.55 |
| COc1ccc(S(=O)(=O)Nc2c(C)n(C)n(-c3ccccc3)c2=O)cc1Br | 7.77 |
| CS(=O)(=O)N(Cc1ccc(C(=O)N2CCc3ccccc3C2)cc1)c1ccccc1 | 12.3 |
| CC(C)OC(=O)CC1C(=O)NCCN1C(=S)NC(=O)c1ccc(F)cc1 (stereo not shown) | 1.09 |
| S=C1Nc2ccccc2Sc2ccccc21 | 19.3 |
| Cn1ncc(Br)c1C(=O)N/N=C/c1cccc(OC2CSC2)c1 | -9.02 |
| Cc1ccc2nsnc2c1NS(=O)(=O)c1c(C)ccc2nsnc12 | 9.84 |
| COC(=O)c1[nH]c2cc(OC)ccc2c1NC(=O)c1ccc2c(c1)OCO2 | 4.52 |
| Cc1ccc(N2C(=O)c3ccc(C(=O)Nc4cccnc4)cc3C2=O)c(C)c1 | 10.3 |
| COC(=O)CCCC1=CC2=C(c3ccccc3)C(=O)C(C)(OC(=O)C3CCCC3)C(=O)C2=CN1c1ccccc1 (stereo not shown) | 12.8 |

| SMILES | hERG current change (%, negative = inhibition) at 1uM [%] |
| --- | --- |
| NC(=O)CC(NC(=O)Cc1cccc2ccccc12)c1ccc(NC2CCC2)c([N+](=O)[O-])c1 (stereo not shown) | -2.29 |
| Cc1nn(-c2ccccc2)c(N2CCCC2)c1/C=N/NC(=S)Nc1ccccc1C(F)(F)F | 11.7 |
| CCCCn1c(CN(Cc2ccccc2)Cc2ccccc2)nc2c1c(=O)n(C)c(=O)n2C | 1.52 |
| Cc1cccc(CS(=O)(=O)Cc2ccc(C(=O)NCCCN3CCOCC3)o2)c1 | -1.51 |
| O=C(N[C@@H]1C[C@H]2CC[C@@H]1C2)c1ccco1 | 14.1 |
| O=C(COC(=O)c1cc(S(=O)(=O)N2CCCC2)ccc1O)Nc1ccc(SC(F)F)cc1 | -19.7 |
| CCn1c(C)nc2cc(C(=O)N3N=C(CCOC)CC3(O)C(F)(F)F)ccc21 (stereo not shown) | 8.06 |
| C=C[C@]1(C)C[C@@H](OC(=O)CSCCN(CC)CC)[C@]2(C)C(C)CC[C@]3(CCC(=O)[C@H]32)[C@@H](C)[C@@H]1O.O=C(O)/C=C/C(=O)O (stereo partly shown) | -27.3 |
| CC(C)(C)c1ccc(C(=O)NCC(=O)N/N=C/c2cccnc2)cc1 | 7.87 |
| COCCNc1nc(C)cc(-c2cc(-c3ccc(Cl)cc3)on2)n1 | 3.1 |
| Cc1ccc(NC(=O)CN(C)CC(=O)NC2CCCc3ccccc32)cc1 (stereo not shown) | -5.94 |
| CCOC(=O)C1(Cc2cccc(OC)c2)CCN(Cc2ccc3c(c2)OCCO3)CC1 | -4.27 |
| CC1(C)Cc2c(cnn2-c2ccccc2)C(NC(=O)CCc2ccncc2)C1 (stereo not shown) | -35.9 |
| CCN(Cc1ccncc1)Cc1cn(C)nc1-c1ccc(Oc2ccccc2)cc1 | -1.75 |
| O=C(NC1CCN(Cc2ccccc2)CC1)c1ccc(CS(=O)c2ccc(F)cc2)o1 (stereo not shown) | 0.977 |
| Nc1ccccc1SC1CC(=O)N(c2ccc3c(c2)OCO3)C1=O (stereo not shown) | 14.3 |
| O=C(NCCc1ccccc1)c1c(O)c2ccccc2[nH]c1=O | 19.4 |
| COCCN1C(=O)N[C@@H](c2cccc(F)c2)C(C(C)=O)=C1C | 14.1 |
| CCCCN(C(=O)c1ccccc1F)c1c(N)n(CCC)c(=O)[nH]c1=O | 17.1 |
| O=C(NC(=S)Nc1ccccc1)c1csnn1 | 14.3 |
| CN(C)CCNC(=O)NC1CCCCC1 | 8.59 |
| CCCCc1nc(NCc2ccccc2)c(C#N)c2c1CCCC2 | 2.62 |
| Cl.c1ccc(CN2CCN(C3CCCSc4ccccc43)CC2)cc1 (stereo not shown) | 15.8 |
| CCC(C)[C@H](Nc1nc(-c2ccccc2)nc2c1oc1ccccc12)C(=O)O.Cl (stereo partly shown) | 10.9 |
| O=C(NCc1ccccn1)c1c(O)c2cccc3c2n(c1=O)CC3 | 0.466 |
| Fc1ccccc1CSc1nnc(-c2cnccn2)n1Cc1ccco1 | 3.71 |
| Cc1cc(N(CN2CCCC2=O)C(=O)c2ccc(F)cc2)no1 | -10.2 |
